These results are taken from patent US20250066451A1 (SWEDISH ORPHAN BIOVITRUM AB PUBL, published 2025).

Experiment [1] addresses T1, human IL-1R-I (RnD Systems cat. no. 269-1R/CF) (human, UniProt P14778 18-332, limits assumed).
T1 construct: bought protein; also called hIL-1R-I; hIL-1RI
T1 sequence (looked up): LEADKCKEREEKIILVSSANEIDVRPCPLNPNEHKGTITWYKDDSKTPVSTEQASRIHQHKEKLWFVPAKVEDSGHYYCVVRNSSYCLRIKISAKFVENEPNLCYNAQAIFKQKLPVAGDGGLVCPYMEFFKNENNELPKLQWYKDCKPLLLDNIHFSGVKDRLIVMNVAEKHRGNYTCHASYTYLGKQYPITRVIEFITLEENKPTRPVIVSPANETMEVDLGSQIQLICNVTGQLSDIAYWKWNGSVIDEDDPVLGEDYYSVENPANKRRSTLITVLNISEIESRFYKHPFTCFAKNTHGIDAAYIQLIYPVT
Briefly: Biacore SPR, hIL-1R-I immobilized, 1:1 model. From the text:
One flow cell surface on the chip was activated and deactivated for use as blank during analyte injections.
(In general: In SPR one partner is held on a chip, and binding of the other changes the refractive index at the surface.)

Experiment [2] deals with T2, IL-1R-I on TF-1 cells (UniProt P14778 18-569, limits assumed).
T2 sequence (looked up): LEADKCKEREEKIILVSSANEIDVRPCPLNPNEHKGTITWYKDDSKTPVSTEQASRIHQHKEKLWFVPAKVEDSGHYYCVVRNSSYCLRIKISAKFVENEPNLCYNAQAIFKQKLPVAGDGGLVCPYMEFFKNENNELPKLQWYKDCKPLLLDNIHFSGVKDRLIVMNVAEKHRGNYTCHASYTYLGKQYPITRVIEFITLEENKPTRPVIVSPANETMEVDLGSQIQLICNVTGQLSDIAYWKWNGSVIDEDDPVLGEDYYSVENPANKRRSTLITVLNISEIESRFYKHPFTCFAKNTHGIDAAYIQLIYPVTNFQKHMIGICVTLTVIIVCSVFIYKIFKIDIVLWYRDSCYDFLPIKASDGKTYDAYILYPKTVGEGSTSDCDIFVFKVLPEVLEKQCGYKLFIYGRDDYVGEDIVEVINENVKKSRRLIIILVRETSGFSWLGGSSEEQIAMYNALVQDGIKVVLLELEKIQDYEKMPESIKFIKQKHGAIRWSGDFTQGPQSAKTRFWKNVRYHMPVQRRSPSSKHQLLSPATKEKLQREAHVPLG
Kind of experiment: cell-based or functional assay.

B1: His6-Z16023 (designed binder)
chain: MGSSHHHHHHLQVDAKYAKEVEEAQMEIFALPNLTRKQYTAFIRKLLDDPSQSSELLSEAKKLNDSQAPKVD
A word on the Kd: it is the equilibrium constant for the complex coming apart. Read a low Kd as higher affinity. By koff is commonly meant the rate constant with which the complex falls apart. Read a high koff as fast dissociation. The term kon denotes the second-order rate constant of association. For B1, in experiment [1], the Kd is 0.29 nM, the koff worked out at 0.0015 s⁻¹ and the kon is 5.3e+06 M⁻¹ s⁻¹. Besides, the “IC50 (nM), TF-1 cell assay” value in experiment [2] came to 3.8 nM.

B2: His6-Z16127 (designed binder)
chain: MGSSHHHHHHLQVDAKYAKEIEIAQMEIFGLPNLTRKQYTAFIRKLLDDPSQSSELLSEAKKLNDSQAPKVD
With B2, in experiment [1], the Kd was determined as 0.29 nM, the off-rate (koff) came to 0.0019 s⁻¹ and the kon worked out at 6.7e+06 M⁻¹ s⁻¹. Besides, the “IC50 (nM), TF-1 cell assay” value in experiment [2] came to 4.1 nM.

B3: His6-Z16007 (designed binder)
chain: MGSSHHHHHHLQVDAKYAKEVEIAQMEIFSLPNLTRKQYTAFIRKLFDDPSQSSELLSEAKKLNDSQAPKVD
Regarding B3, in experiment [1], binding was characterised by a dissociation constant (Kd) of 0.92 nM, the koff was found to be 0.0021 s⁻¹ and the on-rate constant (kon) is 2.3e+06 M⁻¹ s⁻¹. For the same molecule, the “IC50 (nM), TF-1 cell assay” value in experiment [2] worked out at 5.9 nM.

B4: His6-Z16097 (designed binder)
chain: MGSSHHHHHHLQVDAKYAKETERAQMEIFSLPNLTRKQYTAFIRKLLDDPSQSSELLSEAKKLNDSQAPKVD
In experiment [1], B4 returned a Kd of 0.48 nM, a koff of 0.0015 s⁻¹ and a kon of 3.1e+06 M⁻¹ s⁻¹. Moreover, the “IC50 (nM), TF-1 cell assay” value in experiment [2] amounted to 3.4 nM.

B5: His6-Z16116 (designed binder)
chain: MGSSHHHHHHLQVDAKYAKEVEAAQMEIFGLPNLTRKQYTAFIRKLLDDPSQSSELLSEAKKLNDSQAPKVD
B5: in experiment [1], the Kd is 0.88 nM, the koff is 0.0023 s⁻¹ and the kon was determined as 2.6e+06 M⁻¹ s⁻¹. For the same molecule, in experiment [2], the “IC50 (nM), TF-1 cell assay” value was 4.1 nM.

B6: His6-Z16255 (designed binder)
chain: MGSSHHHHHHLQVDAKYAKETEDAYMEIYALPNLTRKQYTAFIRKLLDDPSQSSELLSEAKKLNDSQAPKVD
As for B6, in experiment [1], the Kd was determined as 1 nM, the koff was found to be 0.0031 s⁻¹ and the on-rate constant (kon) is 3e+06 M⁻¹ s⁻¹. Moreover, the “IC50 (nM), TF-1 cell assay” value in experiment [2] was found to be 8.5 nM.

B7: His6-Z15876 (designed binder)
chain: MGSSHHHHHHLQVDAKYAKEIEAAQMEIFGLPNLTRKQYTAFIRKLFDDPSQSSELLSEAKKLNDSQAPKVD
In experiment [1], B7 gave a Kd of 0.62 nM, a koff of 0.0013 s⁻¹ and a kon of 2.1e+06 M⁻¹ s⁻¹. In addition, in experiment [2], the “IC50 (nM), TF-1 cell assay” value was found to be 2.4 nM.

B8: His6-Z16072 (designed binder)
chain: MGSSHHHHHHLQVDAKYAKEVEIAQMEIFELPNLTRKQYTAFIRKLLDDPSQSSELLSEAKKLNDSQAPKVD
In experiment [1], B8 gave an equilibrium dissociation constant (Kd) of 0.47 nM, a koff of 0.0022 s⁻¹ and an association rate constant (kon) of 4.6e+06 M⁻¹ s⁻¹. The “IC50 (nM), TF-1 cell assay” value in experiment [2] worked out at 4.3 nM.

B9: His6-Z16245 (designed binder)
chain: MGSSHHHHHHLQVDAKYAKEVETAYFEIFALPNLTRKQYTAFIRKLLDDPSQSSELLSEAKKLNDSQAPKVD
On to B9, for which, in experiment [1], binding was characterised by a dissociation constant (Kd) of 1.2 nM, the koff is 0.0031 s⁻¹ and the kon came to 2.7e+06 M⁻¹ s⁻¹. Further, the “IC50 (nM), TF-1 cell assay” value in experiment [2] is 8.2 nM.

B10: His6-Z16363 (designed binder)
chain: MGSSHHHHHHLQVDAKYAKEVEQAQMEIFRLPNLTRKQYTAFIRKLLDDPSQSSELLSEAKKLNDSQAPKVD
In experiment [1], B10 had a Kd of 0.57 nM, a koff of 0.0018 s⁻¹ and a kon of 3.2e+06 M⁻¹ s⁻¹. The “IC50 (nM), TF-1 cell assay” value in experiment [2] turned out to be 8.1 nM.

B11: His6-Z16117 (designed binder)
chain: MGSSHHHHHHLQVDAKYAKEIEKAQFEIFALPNLTRKQYTAFIRKLFDDPSQSSELLSEAKKLNDSQAPKVD
As for B11, in experiment [1], the Kd stood at 0.69 nM, the off-rate (koff) came out at 0.0027 s⁻¹ and the kon came to 4e+06 M⁻¹ s⁻¹. In addition, in experiment [2], the “IC50 (nM), TF-1 cell assay” value amounted to 8.5 nM.

B12: His6-Z16301 (designed binder)
chain: MGSSHHHHHHLQVDAKYAKEIEAAQMEIFELPNLTRKQYTAFIRKLLDDPSQSSELLSEAKKLNDSQAPKVD
Take B12: in experiment [1], the Kd came to 0.66 nM, the koff was 0.0021 s⁻¹ and the association rate constant (kon) stood at 3.1e+06 M⁻¹ s⁻¹. Besides, the “IC50 (nM), TF-1 cell assay” value in experiment [2] came to 4.5 nM.

B13: His6-Z15927 (designed binder)
chain: MGSSHHHHHHLQVDAKYAKEIEEAQMEIFYLPNLTRKQYTAFIRKLLDDPSQSSELLSEAKKLNDSQAPKVD
In the case of B13, in experiment [1], binding was put at a Kd of 0.51 nM, the koff amounted to 0.0012 s⁻¹ and the association rate constant (kon) turned out to be 2.4e+06 M⁻¹ s⁻¹. The “IC50 (nM), TF-1 cell assay” value in experiment [2] was 2.5 nM.

B14: His6-Z16065 (designed binder)
chain: MGSSHHHHHHLQVDAKYAKEVEEAQMEIFALPNLTRRQYTAFIRKLLDDPSQSSELLSEAKKLNDSQAPKVD
Regarding B14, in experiment [1], the Kd amounted to 0.19 nM, the koff turned out to be 0.0013 s⁻¹ and the kon was found to be 6.9e+06 M⁻¹ s⁻¹. Moreover, the “IC50 (nM), TF-1 cell assay” value in experiment [2] was 1.7 nM.

B15: His6-Z16169 (designed binder)
chain: MGSSHHHHHHLQVDAKYAKETEEAQMEIFYLPNLTRRQYTAFIRKLLDDPSQSSELLSEAKKLNDSQAPKVD
Consider B15, for which, in experiment [1], the Kd was 0.39 nM, the koff stood at 0.001 s⁻¹ and the kon was 2.6e+06 M⁻¹ s⁻¹. The “IC50 (nM), TF-1 cell assay” value in experiment [2] stood at 0.76 nM.

B16: His6-Z16165 (designed binder)
chain: MGSSHHHHHHLQVDAKYAKEIEVAQMEIYSLPNLTRKQYTAFIRKLFDDPSQSSELLSEAKKLNDSQAPKVD
For the molecule B16, in experiment [1], binding was put at a Kd of 1.7 nM, the off-rate constant (koff) stood at 0.0036 s⁻¹ and the kon is 2.1e+06 M⁻¹ s⁻¹. For the same molecule, the “IC50 (nM), TF-1 cell assay” value in experiment [2] is 11.5 nM.

B17: His6-Z16143 (designed binder)
chain: MGSSHHHHHHLQVDAKYAKEIEAAQMEIFRLPNLTRKQYTAFIRKLLDDPSQSSELLSEAKKLNDSQAPKVD
In experiment [1], B17 gave an equilibrium dissociation constant (Kd) of 0.53 nM, a koff of 0.0016 s⁻¹ and a kon of 3.1e+06 M⁻¹ s⁻¹. In addition, the “IC50 (nM), TF-1 cell assay” value in experiment [2] is 4.8 nM.

B18: His6-Z15953 (designed binder)
chain: MGSSHHHHHHLQVDAKYAKETEKAQMEIFALPNLTRKQYTAFIRKLLDDPSQSSELLSEAKKLNDSQAPKVD
In the case of B18, in experiment [1], the Kd is 0.24 nM, the koff is 0.0015 s⁻¹ and the kon stood at 6e+06 M⁻¹ s⁻¹. In addition, the “IC50 (nM), TF-1 cell assay” value in experiment [2] was determined as 3.7 nM.

B19: His6-Z15862 (designed binder)
chain: MGSSHHHHHHLQVDAKYAKEVEIAQMEIFALPNLTRKQYTAFIRKLLDDPSQSSELLSEAKKLNDSQAPKVD
Regarding B19, in experiment [1], the dissociation constant (Kd) came to 0.67 nM, the koff stood at 0.0019 s⁻¹ and the association rate constant (kon) turned out to be 2.8e+06 M⁻¹ s⁻¹. The “IC50 (nM), TF-1 cell assay” value in experiment [2] was determined as 6.6 nM.

B20: His6-Z16341 (designed binder)
chain: MGSSHHHHHHLQVDAKYAKELEAAQMEIFALPNLTRRQYTAFIRKLLDDPSQSSELLSEAKKLNDSQAPKVD
In the case of B20, in experiment [1], binding was characterised by a dissociation constant (Kd) of 0.52 nM, the koff was found to be 0.0016 s⁻¹ and the on-rate (kon) stood at 3e+06 M⁻¹ s⁻¹. Also, the “IC50 (nM), TF-1 cell assay” value in experiment [2] was found to be 3.9 nM.

B21: His6-Z15961 (designed binder)
chain: MGSSHHHHHHLQVDAKYAKEVETAQMEIFALPNLTRKQYTAFIRKLFDDPSQSSELLSEAKKLNDSQAPKVD
In experiment [1], B21 registered a Kd of 0.46 nM, a koff of 0.002 s⁻¹ and an on-rate constant (kon) of 4.3e+06 M⁻¹ s⁻¹. Besides, the “IC50 (nM), TF-1 cell assay” value in experiment [2] came out at 2.9 nM.

B22: His6-Z16219 (designed binder)
chain: MGSSHHHHHHLQVDAKYAKEIEHAQLEIFSLPNLTRKQYTAFIRKLLDDPSQSSELLSEAKKLNDSQAPKVD
Consider B22, for which, in experiment [1], binding was characterised by a dissociation constant (Kd) of 2.2 nM, the koff came to 0.0056 s⁻¹ and the kon came out at 2.5e+06 M⁻¹ s⁻¹. The “IC50 (nM), TF-1 cell assay” value in experiment [2] stood at 24.2 nM.

B23: His6-Z16093 (designed binder)
chain: MGSSHHHHHHLQVDAKYAKETEEAQMEIFALPNLTRKQYTAFIRKLFDDPSQSSELLSEAKKLNDSQAPKVD
In experiment [1], B23 yielded a Kd of 0.25 nM, a koff of 0.0014 s⁻¹ and a kon of 5.6e+06 M⁻¹ s⁻¹. Moreover, the “IC50 (nM), TF-1 cell assay” value in experiment [2] stood at 3.3 nM.

B24: His6-Z16043 (designed binder)
chain: MGSSHHHHHHLQVDAKYAKETEEAQMEIFRLPNLTRRQYTAFIRKLLDDPSQSSELLSEAKKLNDSQAPKVD
In experiment [1], B24 registered a Kd of 0.44 nM, a koff of 0.0011 s⁻¹ and an on-rate (kon) of 2.5e+06 M⁻¹ s⁻¹. In addition, the “IC50 (nM), TF-1 cell assay” value in experiment [2] came out at 2.5 nM.
